Only a part is listed here, and it is no random draw. The list includes weakly bound sequences.

This is an account of results in publication PMC5700166.

Common to all, as to assay: protein-binding microarray (PBM)
Holding throughout (conditions): PBM: ~300 nM protein, 6 mM HEPES pH 7.8, 80 mM KCl, 0.5 mM EDTA, 0.5 mM EGTA, 6% glycerol, 35 ng/ul poly-dIdC, 1% milk, 1 h, room temperature; Ap Aiptasia and Nv Nematostella (sea anemones) / Co Capsaspora / Aq Amphimedon (sponge) / Dm Drosophila / Hu human; RHD is the Rel homology domain; high values mean tight binding; most listed sequences are background and not binding sites; double strand, one strand shown

In assay [1] the target is T1, GST-Ap-NF-kB RHD (UniProt A0A913YAJ5).
T1 sequence: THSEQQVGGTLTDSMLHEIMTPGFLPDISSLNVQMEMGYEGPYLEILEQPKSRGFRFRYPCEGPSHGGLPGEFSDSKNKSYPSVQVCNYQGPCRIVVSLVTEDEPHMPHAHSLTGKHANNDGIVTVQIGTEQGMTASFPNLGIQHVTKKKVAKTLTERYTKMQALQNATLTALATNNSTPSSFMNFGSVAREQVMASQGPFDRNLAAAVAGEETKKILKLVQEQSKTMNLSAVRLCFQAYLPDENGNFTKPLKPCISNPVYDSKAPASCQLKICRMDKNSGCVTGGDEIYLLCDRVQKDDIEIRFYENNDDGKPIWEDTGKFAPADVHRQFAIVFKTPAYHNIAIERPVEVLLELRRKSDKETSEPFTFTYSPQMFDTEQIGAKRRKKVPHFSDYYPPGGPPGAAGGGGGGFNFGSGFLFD

The target in assay [2] is T2, GST-Nv-NF-kB (Cys allele) (UniProt E5G601).
T2 sequence: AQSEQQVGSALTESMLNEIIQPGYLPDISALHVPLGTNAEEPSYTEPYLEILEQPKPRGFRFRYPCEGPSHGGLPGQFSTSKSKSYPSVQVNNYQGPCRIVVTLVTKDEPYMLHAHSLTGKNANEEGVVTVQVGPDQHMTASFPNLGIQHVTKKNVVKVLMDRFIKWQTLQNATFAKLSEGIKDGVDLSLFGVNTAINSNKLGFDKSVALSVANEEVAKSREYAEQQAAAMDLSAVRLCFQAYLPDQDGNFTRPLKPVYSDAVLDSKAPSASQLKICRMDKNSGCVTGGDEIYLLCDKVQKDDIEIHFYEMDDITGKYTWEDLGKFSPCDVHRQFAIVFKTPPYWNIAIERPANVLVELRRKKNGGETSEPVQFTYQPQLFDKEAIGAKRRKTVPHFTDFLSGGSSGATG

Assay [3] deals with T3, GST-Co-NF-kB (UniProt F1ARL5).
T3 sequence: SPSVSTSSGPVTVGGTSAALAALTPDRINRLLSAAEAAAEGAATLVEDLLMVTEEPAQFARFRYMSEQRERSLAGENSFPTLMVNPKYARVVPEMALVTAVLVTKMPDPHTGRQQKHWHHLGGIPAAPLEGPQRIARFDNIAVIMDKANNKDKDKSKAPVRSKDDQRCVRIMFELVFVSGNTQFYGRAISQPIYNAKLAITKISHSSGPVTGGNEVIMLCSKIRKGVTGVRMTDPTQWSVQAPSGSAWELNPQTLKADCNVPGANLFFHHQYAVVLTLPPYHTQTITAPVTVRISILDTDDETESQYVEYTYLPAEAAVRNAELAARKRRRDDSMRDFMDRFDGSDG

Assay [4] deals with T4, GST-Dm-Relish (UniProt Q94527).
T4 sequence: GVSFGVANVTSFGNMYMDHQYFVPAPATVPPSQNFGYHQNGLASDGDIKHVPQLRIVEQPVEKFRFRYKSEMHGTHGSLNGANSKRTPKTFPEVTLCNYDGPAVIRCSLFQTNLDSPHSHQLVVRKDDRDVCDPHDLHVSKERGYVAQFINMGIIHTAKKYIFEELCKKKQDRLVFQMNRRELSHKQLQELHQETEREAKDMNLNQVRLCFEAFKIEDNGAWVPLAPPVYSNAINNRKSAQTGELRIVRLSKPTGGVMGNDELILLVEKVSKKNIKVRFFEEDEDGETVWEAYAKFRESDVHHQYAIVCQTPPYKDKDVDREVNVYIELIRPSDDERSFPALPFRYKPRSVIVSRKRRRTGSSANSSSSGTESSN

Assay [5] deals with T5, GST-Aq-NF-kB (UniProt A9Y5G7).
T5 sequence: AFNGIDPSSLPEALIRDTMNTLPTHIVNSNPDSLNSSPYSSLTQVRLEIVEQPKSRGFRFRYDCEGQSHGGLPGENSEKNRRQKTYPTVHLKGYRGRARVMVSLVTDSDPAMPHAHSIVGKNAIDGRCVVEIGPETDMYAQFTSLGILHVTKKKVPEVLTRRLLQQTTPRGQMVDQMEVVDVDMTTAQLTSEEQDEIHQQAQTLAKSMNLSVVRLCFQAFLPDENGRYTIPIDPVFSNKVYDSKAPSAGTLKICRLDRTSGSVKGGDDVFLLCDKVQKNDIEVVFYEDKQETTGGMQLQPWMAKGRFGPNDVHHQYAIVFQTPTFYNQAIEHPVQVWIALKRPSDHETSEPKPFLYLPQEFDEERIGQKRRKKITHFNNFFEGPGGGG

On to “CCGATTAACATCATTGCCTGGTGTGATGTTAATCGGGTCTTGATTCGCTTGACGCTGCTG”, for which the binding signal was 0.448 z-score in assay [1]; -0.229 z-score in assay [2]; 0.22 z-score in assay [3]; 0.107 z-score in assay [4]; -0.238 z-score in assay [5].

Consider “CCGATTAACATCACAAAAAATTTTGATGTTAATCGGGTCTTGATTCGCTTGACGCTGCTG”, for which the binding signal in assay [1] was -0.394 z-score; in assay [2] it was -0.0942 z-score; in assay [3], -0.376 z-score; in assay [4], 2.12 z-score; in assay [5] it was 0.715 z-score.

On to “CCGATTAACATCACCAATGATACTGATGTTAATCGGGTCTTGATTCGCTTGACGCTGCTG”, for which the binding signal was -0.333 z-score in assay [1]; -0.0209 z-score in assay [2]; -0.34 z-score in assay [3]; 0.0369 z-score in assay [4]; -0.413 z-score in assay [5].

With “CCGATTAACATCAGTTTCCCCCATGATGTTAATCGGGTCTTGATTCGCTTGACGCTGCTG”, the binding signal in assay [1] was found to be 6.91 z-score; in assay [2], 6.51 z-score; in assay [3] it was 10.6 z-score; in assay [4] it was 2.94 z-score; in assay [5] it was 5.09 z-score.

For the sequence “CCGATTAACATCACTCAGTACTATGATGTTAATCGGGTCTTGATTCGCTTGACGCTGCTG”, the binding signal in assay [1] was -0.394 z-score; in assay [2], -0.216 z-score; in assay [3], 0.123 z-score; in assay [4] it was 0.0521 z-score; in assay [5], -0.384 z-score.

Take “CCGATTAACATCACAACGCATGATGATGTTAATCGGGTCTTGATTCGCTTGACGCTGCTG”: the binding signal in assay [1] was -0.371 z-score; in assay [2], -0.723 z-score; in assay [3], 0.0945 z-score; in assay [4], 0.204 z-score; in assay [5], -0.316 z-score.

As to “CCGATTAACATCAGCTGCCTCCATGATGTTAATCGGGTCTTGATTCGCTTGACGCTGCTG”, the binding signal in assay [1] was 0.32 z-score; in assay [2] it was -0.907 z-score; in assay [3] it was -0.181 z-score; in assay [4], -0.638 z-score; in assay [5], -0.688 z-score.

As for “CCGATTAACATCAAATTTCCAATTGATGTTAATCGGGTCTTGATTCGCTTGACGCTGCTG”, the binding signal in assay [1] is -0.896 z-score; in assay [2] it was -0.0162 z-score; in assay [3], -0.578 z-score; in assay [4] it was 0.339 z-score; in assay [5] it was 0.166 z-score.

With “CCGATTAACATCAGCGCCGTGTGTGATGTTAATCGGGTCTTGATTCGCTTGACGCTGCTG”, the binding signal in assay [1] was 0.188 z-score; in assay [2], -0.435 z-score; in assay [3], -0.345 z-score; in assay [4], 0.979 z-score; in assay [5], -0.184 z-score.
